Reference: a collection of fitness landscapes (doi:10.1016/j.celrep.2020.107928)
In all, about 81,000 sequences were measured (“one-hybrid fitness for binding NBS DNA”: median about -0.1, highest 2% from about 0.36 on). Some of the results follow.

B1: Caulobacter ParB omega fusion; a variant is named by its letters at X, in order, B8GW30 (parent)
chain: MESVVVGEPGMSEGRRGLGRGLSALLGEVDAAPAQAPGEQLGGSREAPIEILQRNPDQPRRTFREEDLEDLSNSIREKGVLQPILVRPSPDTAGEYQIVAGERAWRAAQRAGLKTVPIMVRELDDLAVLEIGIIENVQRADLNVLEEALSYKVLMEKFERTQENIAQTIGKSXSHVANXMRLLXLPDEVQSYLVSGELTAXHARAIAAAADPVALAKQIIEGGLSVRETEALARKAPNLSAGKSKGGRPPRVKDTDTQALESDLSSVLGLDVSIDHRGSTGTLTITYATLEQLDDLCNRLTRGI

Variants of: B1
Assay: one-hybrid fitness for binding NBS DNA (the Noc-binding site; scaled: cognate 1, non-cognate 0); higher = stronger binding
Conditions: with NBS DNA site
Procedure, shortened: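 Fitness here means the log change in variant-to-wild-type read ratio between plasmids sequenced before and after selection. That scale was set so cognate equals 1 and non-cognate equals 0. The selection was a bacterial one-hybrid screen of Caulobacter ParB libraries, four specificity codons randomised, in E. coli USO carrying a HIS3 reporter with the site 19 bp from the promoter, grown 48 hours at 37°C on M9-minus-histidine with 0.1 mM IPTG and 5 mM 3-AT.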

Variant | one-hybrid fitness for binding NBS DNA
VGPV | ≤ 0.2
KRHF | ≤ 0.2
QKSH | 0.241
QHRG | 0.296
DTGA | ≤ 0.2
RNML | ≤ 0.2
QCSY | 0.22
RAEE | ≤ 0.2
PQDF | ≤ 0.2
PSWH | ≤ 0.2
GVLL | ≤ 0.2
CNHR | ≤ 0.2
SHPR | ≤ 0.2
PEIT | ≤ 0.2
GSMT | ≤ 0.2
YFLI | ≤ 0.2
CAGL | ≤ 0.2
IMTI | ≤ 0.2
PFNR | ≤ 0.2
TKVT | ≤ 0.2
AECI | ≤ 0.2
TTIY | ≤ 0.2
NKKR | 0.3
RSLA | ≤ 0.2

Variant | one-hybrid fitness for binding NBS DNA
HTGQ | ≤ 0.2
ITRT | ≤ 0.2
GTEC | ≤ 0.2
VAFS | ≤ 0.2
NMGQ | ≤ 0.2
PWNI | ≤ 0.2
ETPA | ≤ 0.2
PVPF | ≤ 0.2
VNET | ≤ 0.2
QNNA | ≤ 0.2
TTCL | ≤ 0.2
WATL | ≤ 0.2
VMST | ≤ 0.2
SKNM | ≤ 0.2
TFLY | ≤ 0.2
LNHT | ≤ 0.2
TNSD | ≤ 0.2
GRMV | ≤ 0.2
KIVG | ≤ 0.2
VCRA | ≤ 0.2
RWWE | ≤ 0.2
VAEL | ≤ 0.2
YDNS | ≤ 0.2
SDRP | ≤ 0.2

Variant | one-hybrid fitness for binding NBS DNA
CAGK | ≤ 0.2
ASPC | ≤ 0.2
TELM | ≤ 0.2
RITM | ≤ 0.2
QMTD | ≤ 0.2
CEYS | ≤ 0.2
ESML | ≤ 0.2
NVQS | ≤ 0.2
PFFA | ≤ 0.2
TGAV | ≤ 0.2
LAIS | ≤ 0.2
RPTC | ≤ 0.2
PLVR | ≤ 0.2
TIHG | ≤ 0.2
QLHT | 0.393
APVD | ≤ 0.2
WHCR | ≤ 0.2
SGTY | ≤ 0.2
GHAH | ≤ 0.2
VQNG | ≤ 0.2
TENQ | ≤ 0.2
NRFR | ≤ 0.2
PTRY | ≤ 0.2
NVPD | ≤ 0.2

Variant | one-hybrid fitness for binding NBS DNA
ESLS | ≤ 0.2
VEHM | ≤ 0.2
TGHV | ≤ 0.2
GSPH | ≤ 0.2
YMYN | ≤ 0.2
NRSA | ≤ 0.2
EYWT | ≤ 0.2
RGLI | ≤ 0.2
YKSG | ≤ 0.2
WGPS | ≤ 0.2
CWRC | ≤ 0.2
QWNK | ≤ 0.2
QSSY | ≤ 0.2
DKLC | ≤ 0.2
RAWE | ≤ 0.2
KWNG | ≤ 0.2
SPPG | ≤ 0.2
YGSE | ≤ 0.2
RWVY | ≤ 0.2
HKSW | ≤ 0.2
VQRT | ≤ 0.2
LMHS | ≤ 0.2
TMEV | ≤ 0.2
KECK | ≤ 0.2

Variant | one-hybrid fitness for binding NBS DNA
GILA | ≤ 0.2
GLTM | ≤ 0.2
KGQG | ≤ 0.2
IPQR | ≤ 0.2
LTEA | ≤ 0.2
VNLP | ≤ 0.2
QAVP | ≤ 0.2
FLKR | ≤ 0.2
KACS | ≤ 0.2
RCVA | ≤ 0.2
ERNE | ≤ 0.2
MMQY | ≤ 0.2
YVAF | ≤ 0.2
KQVG | ≤ 0.2
AGLG | ≤ 0.2
IYPG | ≤ 0.2
SWPD | ≤ 0.2
EKNI | ≤ 0.2
QRHR | 1.06
PAGS | ≤ 0.2
WGFL | ≤ 0.2
NFMA | ≤ 0.2
LCTG | ≤ 0.2
PVKT | ≤ 0.2

Variant | one-hybrid fitness for binding NBS DNA
SMWS | ≤ 0.2
ESYW | ≤ 0.2
YAYY | ≤ 0.2
RKTH | 0.233
IPVQ | ≤ 0.2
QGLH | ≤ 0.2
QAFY | 0.396
SIPS | ≤ 0.2
LTSS | ≤ 0.2
REGS | ≤ 0.2
QCIN | ≤ 0.2
DLDN | ≤ 0.2
CMVS | ≤ 0.2
ESSH | ≤ 0.2
ATPV | ≤ 0.2
QKSA | 0.31
HAHY | ≤ 0.2
TSMT | ≤ 0.2
VFRS | ≤ 0.2
ASNK | ≤ 0.2
KNRA | ≤ 0.2
RMDV | ≤ 0.2
PTQR | ≤ 0.2
CRIF | ≤ 0.2

Variant | one-hybrid fitness for binding NBS DNA
SGHG | ≤ 0.2
LTGG | ≤ 0.2
DLLL | ≤ 0.2
QLIH | ≤ 0.2
ALRS | ≤ 0.2
SGTK | ≤ 0.2
ARDF | ≤ 0.2
SKYI | ≤ 0.2
QDIG | ≤ 0.2
MKLF | ≤ 0.2
LAWV | ≤ 0.2
MMWA | ≤ 0.2
FPAR | ≤ 0.2
YENC | ≤ 0.2
TASI | ≤ 0.2
YWAT | ≤ 0.2
VYRC | ≤ 0.2
MMRG | ≤ 0.2
QQVH | ≤ 0.2
AQVC | ≤ 0.2
HGSK | ≤ 0.2
LQWQ | ≤ 0.2
MVRR | ≤ 0.2
VLTA | ≤ 0.2

Variant | one-hybrid fitness for binding NBS DNA
AQLW | ≤ 0.2
YMWY | ≤ 0.2
VVIS | ≤ 0.2
YSDC | ≤ 0.2
KSNI | ≤ 0.2
VDVS | ≤ 0.2
PHYV | ≤ 0.2
EALE | ≤ 0.2
WNKI | ≤ 0.2
LWLW | ≤ 0.2
LSLA | ≤ 0.2
LANL | ≤ 0.2
QVYR | 0.306
KKQT | 0.393
IKRF | ≤ 0.2
DVPY | ≤ 0.2
VSQE | ≤ 0.2
LLQV | ≤ 0.2
QGYI | ≤ 0.2
PHHE | ≤ 0.2
MPPR | ≤ 0.2
TGRC | ≤ 0.2
SLHK | ≤ 0.2
GTPK | ≤ 0.2

Variant | one-hybrid fitness for binding NBS DNA
PDLF | ≤ 0.2
RMWK | ≤ 0.2
LMWG | ≤ 0.2
SHDR | ≤ 0.2
HKTI | ≤ 0.2
YISG | ≤ 0.2
NDDD | ≤ 0.2
KPNF | ≤ 0.2
LALT | ≤ 0.2
FHAA | ≤ 0.2
WSLG | ≤ 0.2
RVQY | ≤ 0.2
QGNC | ≤ 0.2
GPLH | ≤ 0.2
HAPW | ≤ 0.2
KAYL | ≤ 0.2
SLMR | ≤ 0.2
TPLH | ≤ 0.2
QSNK | ≤ 0.2
QDVS | ≤ 0.2
ATQA | ≤ 0.2
ELSL | ≤ 0.2
SEDC | ≤ 0.2
DRDG | ≤ 0.2

Variant | one-hybrid fitness for binding NBS DNA
IGET | ≤ 0.2
RFYQ | ≤ 0.2
KPQG | ≤ 0.2
NSTY | ≤ 0.2
RQHD | ≤ 0.2
CAIR | ≤ 0.2
YTNK | ≤ 0.2
TNII | ≤ 0.2
CPLL | ≤ 0.2
HCDP | ≤ 0.2
RFPH | ≤ 0.2
RWNE | ≤ 0.2
IDKA | ≤ 0.2
MMQS | ≤ 0.2
SPNM | ≤ 0.2
QKMG | ≤ 0.2
TPPH | ≤ 0.2
NDVN | 0.296
KTSL | ≤ 0.2
QCHP | ≤ 0.2
DPSC | ≤ 0.2
GSTT | ≤ 0.2
KQCS | ≤ 0.2
EGSH | ≤ 0.2

Variant | one-hybrid fitness for binding NBS DNA
GAYY | ≤ 0.2
SMDY | ≤ 0.2
ANYW | ≤ 0.2
EDEL | ≤ 0.2
FLQT | ≤ 0.2
RHII | ≤ 0.2
ALLM | ≤ 0.2
CTNM | ≤ 0.2
QHRT | 0.681
AAHT | ≤ 0.2
WSTE | ≤ 0.2
WLHT | ≤ 0.2
NIMR | ≤ 0.2
LLMC | ≤ 0.2
HPCP | ≤ 0.2
PQKR | 0.252
VWLS | ≤ 0.2
VDEL | ≤ 0.2
SMKF | ≤ 0.2
NIRG | ≤ 0.2
WCTG | ≤ 0.2
SQKY | ≤ 0.2
NMLS | ≤ 0.2
DLLC | ≤ 0.2

Variant | one-hybrid fitness for binding NBS DNA
ACCE | ≤ 0.2
KYKY | ≤ 0.2
CRGS | ≤ 0.2
IIDV | ≤ 0.2
LMAG | ≤ 0.2
YAQC | ≤ 0.2
QFKG | ≤ 0.2
KRIF | ≤ 0.2
HMPR | ≤ 0.2
CDAR | ≤ 0.2
STYM | ≤ 0.2
AGVG | ≤ 0.2
CPGS | ≤ 0.2
RWFK | ≤ 0.2
REDH | ≤ 0.2
IVQC | ≤ 0.2
GVVP | ≤ 0.2
FYAW | ≤ 0.2
QCFI | ≤ 0.2
NETC | ≤ 0.2
VHMC | ≤ 0.2
PTEC | ≤ 0.2
PVMR | ≤ 0.2
TRRI | ≤ 0.2

Variant | one-hybrid fitness for binding NBS DNA
NPIR | ≤ 0.2
VWWS | ≤ 0.2
SGGA | ≤ 0.2
PVWR | ≤ 0.2
RNIK | ≤ 0.2
DDQT | ≤ 0.2
CAFG | ≤ 0.2
AGAL | ≤ 0.2
AKVS | ≤ 0.2
YPHL | ≤ 0.2
EWRS | ≤ 0.2
LPST | ≤ 0.2
IRPA | ≤ 0.2
EQCT | ≤ 0.2
CRGR | ≤ 0.2
ALPL | ≤ 0.2
YGVH | ≤ 0.2
NWKG | ≤ 0.2
